Assay results published in patent US5877019A, “Animal 2-5A-dependent RNases and encoding sequences therefor” (Cleveland Clinic Foundation, priority 1996, dated 1999).

Tested on: human 2-5A-dependent RNase
Settings: purified enzyme, poly(rU) substrate

activation of 2-5A-dependent RNase (in words) (listed as pppA2'p5'A) | concentration at which no activation of 2-5A-dependent RNase was seen [µM] | Substance
failed to activate | – | p3 A2'pA
– | > 1 | pppA(3'p5'A)2
